{"source": "the supplement of paper PMC10670038", "note": "Structures can show the parent of a compound that is named as a salt. ± gives the standard deviation of the averaged measurements. Whole data set: some 2,000 compounds, median “relative cell viability vs DMSO, compound + 0.2 uM CuET” near 1, cut for the lowest 2% near 0.25. This is one part of the list."}
{"test_system": "TE10", "assay": "relative cell viability vs DMSO, compound + 0.2 uM CuET (fraction); TE10 is an esophageal squamous carcinoma line; higher = less cytotoxic", "settings": "2 µM; co-treatment: CuET (bis(diethyldithiocarbamate)copper) 0.2 uM; 48 h", "method": "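TE10 ESCC cells (1,000/well, 384-well plates) were treated with Selleck bioactive library compounds at 2 uM combined with 0.2 uM CuET (copper diethyldithiocarbamate) for 48 h. Viability was read by CellTiter-Glo and expressed relative to DMSO wells. Two technical replicates (A, B).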"}
{"smiles": "C=C1C[C@@H]2[C@H](CC[C@]3(C)C(=O)CC[C@@H]23)[C@@]2(C)C=CC(=O)C=C12", "note": "[Exemestane]", "relative cell viability": "1.037 ± 0.0051"}
{"smiles": "C[C@H]1CNCCc2ccc(Cl)cc21", "note": "[Lorcaserin HCl]", "relative cell viability": "1.18 ± 0.13"}
{"smiles": "COc1cc(C)[nH]c(=O)c1CNC(=O)c1c(C)n([C@H](C)C2CCOCC2)c2ccccc12", "relative cell viability": "1.18 ± 0.017"}
{"smiles": "CN(C)[C@@H]1C(=O)C(C(N)=O)=C(O)[C@@]2(O)C(=O)C3=C(O)c4c(O)cccc4[C@@](C)(O)[C@H]3[C@H](O)[C@@H]12", "note": "[Oxytetracycline (Terramycin)]", "relative cell viability": "1.054 ± 0.0011"}
{"smiles": "CN(C)[C@@H]1C(=O)C(C(N)=O)=C(O)[C@@]2(O)C(=O)C3=C(O)c4c(O)cccc4[C@@](C)(O)[C@H]3[C@H](O)[C@@H]12", "note": "[Oxytetracycline Dihydrate]", "relative cell viability": "1.11 ± 0.014"}
{"smiles": "CN1C(=O)CCS(=O)(=O)C1c1ccc(Cl)cc1", "note": "(stereo not given) [Chlormezanone]", "relative cell viability": "1.08 ± 0.047"}
{"smiles": "O=P1(N(CCCl)CCCl)NCCCO1", "note": "(stereo not given) [Cyclophosphamide Monohydrate]", "relative cell viability": "1.07 ± 0.078"}
{"smiles": "c1ccc2c(c1)sc1ccccc12", "note": "[Dibenzothiophene]", "relative cell viability": "1.16 ± 0.19"}
{"smiles": "Cc1ccc(-n2nccn2)c(C(=O)N2CCN(c3nc4cc(Cl)ccc4o3)CC[C@H]2C)c1", "note": "[Suvorexant (MK-4305)]", "relative cell viability": "0.801 ± 0.017"}
{"smiles": "CCCN1CCO[C@@H]2c3cc(O)ccc3OC[C@H]21", "relative cell viability": "1.04 ± 0.028"}
{"smiles": "CCCCCCCCCCCCCCCC[n+]1ccccc1", "note": "[Cetylpyridinium Chloride]", "relative cell viability": "0.857 ± 0.057"}
{"smiles": "Cc1sc2c(c1C)C(c1ccc(Cl)cc1)=N[C@@H](CC(=O)OC(C)(C)C)c1nnc(C)n1-2", "relative cell viability": "0.586 ± 0.068"}
{"smiles": "CCc1cc2c(s1)-n1c(C)nnc1CN=C2c1ccccc1Cl", "note": "[Etizolam]", "relative cell viability": "1.14 ± 0.17"}
{"smiles": "Cc1sc2c(c1C)C(c1ccc(Cl)cc1)=NC(CC(N)=O)c1nnc(C)n1-2", "note": "(stereo not given)", "relative cell viability": "0.695 ± 0.058"}
{"smiles": "OC(c1ccccc1)(c1ccccc1)C1CCNCC1", "note": "[Azacyclonol]", "relative cell viability": "1.34 ± 0.36"}
{"smiles": "COc1cc(OC)c(OC)cc1C=O", "note": "[Asaraldehyde]", "relative cell viability": "1.08 ± 0.073"}
{"smiles": "CCC1(C)CC(=O)NC(=O)C1", "note": "[Bemegride]", "relative cell viability": "1.09 ± 0.04"}
{"smiles": "C/C(O)=C(\\C#N)C(=O)Nc1cc(Br)ccc1Br", "relative cell viability": "1.17 ± 0.16"}
{"smiles": "CCN(Cc1ccc(Cl)nc1)/C(=C/[N+](=O)[O-])NC", "note": "[Nitenpyram]", "relative cell viability": "1.101 ± 0.0088"}
{"smiles": "Cc1ccccc1-n1c(Cn2ncc3c(N)ncnc32)nc2cccc(C)c2c1=O", "relative cell viability": "1.15 ± 0.18"}
{"smiles": "CCN1CC2(OC(=O)c3ccccc3NC(C)=O)CCC(OC)C34C1C(CC23)C1(O)CC(OC)C2CC4C1(O)C2OC", "note": "(stereo not given) [Lappaconite HBr]", "relative cell viability": "1.049 ± 0.0027"}
{"smiles": "CN(C)C(=O)Oc1ccc[n+](C)c1", "note": "[Pyridostigmine Bromide]", "relative cell viability": "1.04 ± 0.019"}
{"smiles": "CN1CCN(c2nc3ccccc3nc2Cl)CC1", "relative cell viability": "1.15 ± 0.04"}
{"smiles": "Cc1cc2c(C(C)C)c(O)c(O)c(C=O)c2c(O)c1-c1c(C)cc2c(C(C)C)c(O)c(O)c(C=O)c2c1O", "relative cell viability": "0.744 ± 0.063"}
{"smiles": "Cc1cc2c(C(C)C)c(O)c(O)c(C=O)c2c(O)c1-c1c(C)cc2c(C(C)C)c(O)c(O)c(C=O)c2c1O", "note": "[Gossypol]", "relative cell viability": "0.73 ± 0.078"}
{"smiles": "CC(C)NCC(O)c1ccccc1Cl", "note": "(stereo not given) [Clorprenaline HCl]", "relative cell viability": "1.22 ± 0.12"}
{"smiles": "O=c1[nH]c2ccc(Cl)cc2c(N[C@@H]2CN3CCC2CC3)c1-c1nc2ccccc2[nH]1", "relative cell viability": "0.813 ± 0.024"}
{"smiles": "CCN(CC)C(=O)c1ccc(C2=CC3(CCNCC3)Oc3cccc(O)c32)cc1", "relative cell viability": "0.973 ± 0.04"}
{"smiles": "C[C@]12CCC(=O)C(O)=C1CC[C@@H]1[C@@H]2CC[C@]2(C)C(=O)CC[C@@H]12", "note": "[Formestane]", "relative cell viability": "1.165 ± 0.0091"}
{"smiles": "CCOc1ccccc1-n1c(C(C)N2CCN(C(=O)COc3ccc(Cl)cc3)CC2)nc2ccccc2c1=O", "note": "(stereo not given) [Erastin]", "relative cell viability": "0.859 ± 0.025"}
{"smiles": "CN1[C@@H]2CC[C@H]1C[C@@H](OC(=O)C(CO)c1ccccc1)C2", "note": "(stereo not given in full) [Atropine]", "relative cell viability": "0.8202 ± 0.0076"}
{"smiles": "CCC1=C[C@H]2CN3CCc4c([nH]c5ccccc45)[C@](C(=O)OC)(C2)[C@H]13", "note": "[Catharanthine]", "relative cell viability": "1.11 ± 0.09"}
{"smiles": "CNCC(O)c1ccc(O)cc1", "note": "(stereo not given) [Synephrine HCl]", "relative cell viability": "1.16 ± 0.028"}
{"smiles": "CNCC(O)c1ccc(O)cc1", "note": "(stereo not given) [Synephrine]", "relative cell viability": "1.108 ± 0.0039"}
{"smiles": "CCc1c(C(=O)C(N)=O)c2c(OCC(=O)O)cccc2n1Cc1ccccc1", "relative cell viability": "1.14 ± 0.12"}
{"smiles": "Cc1sc2c(c1C)C(c1ccc(Cl)cc1)=N[C@@H](CC(=O)Nc1ccc(O)cc1)c1nnc(C)n1-2", "relative cell viability": "0.666 ± 0.046"}
{"smiles": "COc1ccc(C(CN(C)C)C2(O)CCCCC2)cc1", "note": "(stereo not given) [Venlafaxine]", "relative cell viability": "1.08 ± 0.15"}
{"smiles": "Cc1cccc(C)c1NC(=O)CN1CCCC1=O", "note": "[Nefiracetam]", "relative cell viability": "1.14 ± 0.013"}
{"smiles": "Cc1cccc(Cc2c[nH]cn2)c1C", "note": "[Detomidine HCl]", "relative cell viability": "1.07 ± 0.12"}
{"smiles": "N#CC(C#N)=Cc1ccc(O)c(O)c1", "relative cell viability": "0.937 ± 0.14"}
{"smiles": "Cn1cc(C2=C(c3cn(C4CCN(Cc5ccccn5)CC4)c4ccccc34)C(=O)NC2=O)c2ccccc21", "relative cell viability": "1.16 ± 0.22"}
{"smiles": "C=CCN1CC[C@]23c4c5ccc(O)c4O[C@H]2C(=O)CC[C@@]3(O)[C@H]1C5", "note": "[Naloxone HCl Dihydrate]", "relative cell viability": "1.17 ± 0.097"}
{"smiles": "C[C@@H]1CC[C@@]2(OC1)O[C@H]1C[C@H]3[C@@H]4CC=C5C[C@@H](O[C@@H]6O[C@H](CO)[C@@H](O[C@@H]7O[C@@H](C)[C@H](O)[C@@H](O)[C@H]7O)[C@H](O)[C@H]6O[C@@H]6O[C@@H](C)[C@H](O)[C@@H](O)[C@H]6O)CC[C@]5(C)[C@H]4CC[C@]3(C)[C@H]1[C@@H]2C", "note": "[Dioscin]", "relative cell viability": "0.265 ± 0.027"}
{"smiles": "O=C(NCC1CCOCC1)c1cnc(Nc2ccc(Cl)cc2Cl)nc1C(F)(F)F", "relative cell viability": "1.04 ± 0.043"}
{"smiles": "O=C1C=CC[C@@H]2[C@H]3CCCN4CCC[C@@H](CN12)[C@@H]34", "note": "[Sophocarpine]", "relative cell viability": "0.9413 ± 0.0051"}
{"smiles": "CC(=O)O[C@H]1C[C@@H]2CC[C@@H]3[C@H](CC[C@@]4(C)[C@H]3C[C@H]([N+]3(C)CCCCC3)[C@@H]4OC(C)=O)[C@@]2(C)C[C@@H]1[N+]1(C)CCCCC1", "note": "[Pancuronium dibromide]", "relative cell viability": "1.004 ± 0.0074"}
{"smiles": "c1ccc2c(c1)Nc1ccccc1S2", "note": "[Phenothiazine]", "relative cell viability": "1.06 ± 0.12"}
{"smiles": "CN1CCCCC1Cn1cc(C(=O)c2cc([N+](=O)[O-])ccc2I)c2ccccc21", "note": "(stereo not given)", "relative cell viability": "0.895 ± 0.05"}
{"smiles": "O=c1ccc2cc(O[C@@H]3O[C@H](CO)[C@@H](O)[C@H](O)[C@H]3O)c(O)cc2o1", "note": "[Esculin]", "relative cell viability": "1.11 ± 0.043"}
{"smiles": "CN(C)[C@@H]1C(=O)C(C(N)=O)=C(O)[C@@]2(O)C(=O)C3=C(O)c4c(O)cccc4[C@@](C)(O)[C@H]3C[C@@H]12", "note": "[Tetracycline HCl]", "relative cell viability": "1.28 ± 0.054"}
